Data set [1] deals with T1, trypsin (Bos taurus, UniProt P00760).
T1 construct: Active trypsin is produced only after trypsinogen reaches the small intestine through the common bile duct and is cleaved by enterokinase; purchased Sigma, St. Louis; host or cells: bovine pancreas
T1 sequence (P00760 24-246): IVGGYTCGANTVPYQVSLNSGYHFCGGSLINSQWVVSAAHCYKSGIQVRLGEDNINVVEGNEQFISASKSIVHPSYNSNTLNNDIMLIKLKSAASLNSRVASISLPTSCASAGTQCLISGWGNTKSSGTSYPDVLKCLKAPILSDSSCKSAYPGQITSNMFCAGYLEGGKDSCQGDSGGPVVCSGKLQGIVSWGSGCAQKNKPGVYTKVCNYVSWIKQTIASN
Nature of the data set: Steady-state kinetics of trypsin digestion of EGFP-based trypsin sensors and BAPNA (absorbance at 490 nm, Michaelis-Menten fit). The data set is classed as biochemical, bovine. The settings on record: Table 4; pH 7.4, 10 mM Tris, 20 mM CaCl2.

Data set [2] concerns the target T1, trypsin. Nature of the data set: Optical signal change / dynamic range of trypsin sensors upon trypsin digestion. The data set is classed as biochemical, bovine. The settings on record: absorbance ratio 490 nm/398 nm after versus before trypsin cleavage. The procedure: Spectral Properties Protease Sensors after Protease Digestion Trypsin digestion of 15 μM EGFP-T/C1 and EGFP-T/C2 was performed by adding stock trypsin from bovine pancreas (Sigma, St. Louis) up to a final concentration of 0.02 μM in trypsin digestion buffer (10 mM Tris, 20 mM CaCl2, pH 7.4). The UV-visible spectra after trypsin digestion were measured in a 1 cm pathway cuvette at different time intervals (0, 1, 3, 5, 10, 20, 30, 60, 90 and 120 min). In order to measure fluorescence spectra of EGFP-T/C1 and EGFP-T/C2 following trypsin digestion, 0.02 μM trypsin were added to 1 μM EGFP-T/C1 and EGFP-T/C2 samples in trypsin digestion buffer (10 mM Tris, 20 mM CaCl2, pH 7.4), respectively. Fluorescence emission of trypsin sensors at 508 nm with excitation at 398 and 490 nm was recorded at different time intervals (0, 1, 3, 5, 10, 20, 30, 60, 90 and 120 min). […]
In order to evaluate designed trypsin sensors, the dynamic range calculation for optical signal change in absorbance or fluorescence upon trypsin digestion is determined by equation 1: […]
In order to evaluate designed trypsin sensors, the dynamic range calculation for absorbance change upon trypsin digestion is determined through the following equation: […]
Where A490a and A398a are the absorbances at 490 nm and 398 nm after cleavage, respectively; A490b and A398b are the absorbances at 490 nm and 398 nm before cleavage, respectively. […]

B1: EGFP-E-III-F-R197-GPARL: trypsin sensor of Table 1, cleavage linker EEEIAEAFAVFDADGNGYISAAGPARLVMTNL inserted in position 172 in EGFP (protein)
chain: MVSKGEELFTGVVPILVELDGDLNGHKFSVSGEGEGDATYGKLTLKFICTTGKLPVPWPTLVTTLTYGVQCFSRYPDHMKQHDFFKSAMPEGYVQERTIFFKDDGNYKTRAEVKFEGDTLVNRIELKGIDFKEDGNILGHKLEYNYNSHNVYIMADKQKNGIKVNFKIRHNIEEEEIAEAFAVFDADGNGYISAAGPARLVMTNLDGSVQLADHYQQNTPIGDGPVLLPDNHYLSTQSALSKDPNEKRDHIVLLEFVTAAGITLGMDELYK
Consider B1, for which, in data set [1], the Km was 4.21 ± 0.71 µM and the catalytic constant (kcat) was 0.85 ± 0.06 s⁻¹. In data set [2], the “Dynamic range (DR)” value is on record as 1.8034 ± 0.2855.
